From PubChem BioAssay AID1347073 (National Center for Advancing Translational Sciences (NCATS), 2019) come the findings set out here.

Screen size: about 45,000 compounds; about 200 (0.44%) were called active. Roughly 7% stayed inconclusive and do not appear here. The call rests on the fitted dose curve; in most records, active means well fitted activation curve with a large enough effect; inconclusive means small, poorly fitted or top-dose-only effect; inactive means no such curve, though single readings can be large or run the other way. The list shows a part of the results.

This experiment is described as follows: qHTS of TDP-43 Inhibitors: NCGC Sytravon Library Screen. Further: 0% is about no effect; nearly all actives have a fitted effect of over 55% in size. The note with it: yeast TDP-43 toxicity rescue, BacTiter-Glo growth, 24 h; series mostly up to 46.1 µM; growth rescue (activation): at the top concentration. An outline of the steps: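 TDP-43-expressing yeast, pregrown in raffinose, seeded at OD600 0.02 in galactose medium with compound for 24 hr at 30 deg C. Growth read by BacTiter-Glo luminescence, so rescue of toxicity appears as activation.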
For the molecule `O=C(COc1ccc(Br)cc1F)N1CCN(c2ncccn2)CC1`, the “growth rescue (activation)” value was inactive: 22.7%. `O=C(NCCN1CCN(C(=O)c2cccc(Br)c2)CC1)C(=O)Nc1ccc(Br)cc1`: the “growth rescue (activation)” value is inactive: 2.34%. The same measure for `O=C1CN(C(=O)CNCc2ccccc2)c2ccccc2N1`: inactive: -18.3%; for `Cc1cc2ccccn2c1C(=O)c1ccc([N+](=O)[O-])cc1[N+](=O)[O-]`: inactive: -2.43%. As for `Cc1csc(=Nc2c(C)n(C)n(-c3ccccc3)c2=O)n1Cc1ccccc1`, the figure is inactive: 5.02%; as for `CC(=O)Oc1ccc(C(=O)Nc2cc(NC(=O)c3ccc(OC(C)=O)cc3)cc(C(=O)NC(C)(C)C)c2)cc1`, inactive: 7.98%. The same measure for `CC1CCN(C(=O)CC(NC(N)=O)c2ccccc2Cl)CC1` (stereo unspecified): inactive: -14.4%; for `CCN(CC)c1ccc(/C=N/NC(=O)Cc2ccc(OC)c(OC)c2)cc1`: inactive: 6.91%; for `Cc1[nH]c(=O)[nH]c(=O)c1NS(=O)(=O)c1ccccc1`: inactive: -8.14%. As to `CC(C(=O)Nc1cc([N+](=O)[O-])ccc1Cl)N1CCN(c2ccccc2)CC1` (stereo unspecified), the “growth rescue (activation)” value is inactive: -8.53%. The same measure for `Nc1nc(NCCO)nc(NCc2ccccc2)c1[N+](=O)[O-]`: inactive: -0.418%; for `CCOc1ccc(C2C3=C(CCCC3=O)N(CC(=O)O)C3=C2C(=O)CCC3)cc1`: inactive: 5.67%.

As for `COc1cccc(-c2cnc(C(O)c3cc(Cl)cc(Cl)c3)[nH]2)c1` (stereo unspecified), the “growth rescue (activation)” value is inactive: -0.257%. As for `NS(=O)(=O)c1ccc(CNC(=O)c2cccc(Oc3ccccc3)c2)cc1`, the figure is inactive: -21.7%; as for `CCOc1ccc(CC2S/C(=N/N=C/c3ccco3)NC2=O)cc1` (stereo unspecified), inactive: -7.64%; as for `CCc1ccc(-c2csc3ncn(CC(=O)NCc4ccco4)c(=O)c23)cc1`, inactive: 9.68%.

As for `O=C(OCc1cccc([N+](=O)[O-])c1)c1cccnc1Cl`, the “growth rescue (activation)” value was inactive: 13.6%. The same measure for `COP(C)(=O)c1c(C)nn(-c2ccccc2)c1C` (stereo unspecified): inactive: -8.3%; for `CCOc1cc(NC(=O)C2CC2)c(OCC)cc1NC(=O)c1ccccc1OCC`: inactive: 23.6%; for `CC1(C(=O)NS(=O)(=O)c2cccc(F)c2)CCN1C(=O)C/C=C/c1ccccc1` (stereo unspecified): inactive: -8.4%. Consider `COc1ccc(CNC(=O)C2CCCN(C(=O)Nc3ccc(OC)cc3)C2)cc1` (stereo unspecified), for which the “growth rescue (activation)” value was inactive: 9.27%. Turning to `COc1cc(OC)c(NC(=O)NC(C)c2c(-n3cccc3)sc(C)c2C)cc1Cl` (stereo unspecified), the “growth rescue (activation)” value is inactive: 3.94%. As for `COc1ccc(NC(=O)C2CCC(CNS(=O)(=O)c3cccs3)CC2)cc1` (stereo unspecified), the figure is inactive: -7.32%; as for `O=C(Nc1ccccc1-c1nnn(CC(=O)N2CCOCC2)n1)c1ccc(F)cc1`, inactive: -2.6%.

For the molecule `Fc1ccc(NC(=S)N2CCCCC2)cc1`, the “growth rescue (activation)” value is inactive: 22.9%.

Regarding `CCc1nnc(N2CCN(c3ncnc4c3oc3ccccc34)CC2)s1`, the “growth rescue (activation)” value is inactive: -4.11%. As for `CCOc1ccc(N(CC(=O)Nc2ccc(OC)cc2)S(=O)(=O)c2c(C)[nH]c(=O)[nH]c2=O)cc1`, the figure is inactive: -7.4%; as for `COc1ccc(C(=O)Nn2cnnc2)cc1OC`, inactive: -5.96%; as for `Cc1ccccc1-n1cc(CNC(=O)C2CCC(=O)N(C3CC3)C2)cn1` (stereo unspecified), inactive: -8.24%. As for `O=C(O)c1cc(-c2cccs2)nn1-c1ccc(F)cc1`, the figure is inactive: -0.226%; as for `CCOc1ccc(N(CCCCO)C(=S)NC(=O)c2ccc(C)c(Br)c2)cc1`, inactive: 10.6%; as for `N#Cc1ccc(OCc2c(-c3ccccc3)nnn2CC(=O)O)cc1`, inactive: 8.7%.

As for `COc1ccc(OC)c(NC(=O)C2(C)CCN2Cc2ccsc2)c1` (stereo unspecified), the “growth rescue (activation)” value is inactive: 1.54%. As for `CC(=O)Nc1cccc(-c2ccnc3c2CC(C)(C(=O)NCc2cccs2)O3)c1` (stereo unspecified), the figure is inactive: 3.17%. The same measure for `Cc1ccc(C(=O)NCCc2ccc(S(N)(=O)=O)cc2)o1`: inactive: -1.35%. As for `C=CCC(C(=O)NC(C)c1ccccc1)C(=O)NC(C)c1ccccc1` (stereo unspecified), the “growth rescue (activation)” value was inactive: -2.11%.

Consider `O=C(Nc1ccc(Cl)cc1)Nc1nnc(/C=C/c2ccccc2)s1`, for which the “growth rescue (activation)” value was inactive: 19.2%. As for `CC(=O)Nc1ccc(NC(=O)CCNS(=O)(=O)c2cccc3nsnc23)cc1`, the figure is inactive: 6.77%; as for `COc1cc(/C=C2/C(=O)ON=C2C)cc(Cl)c1O`, inactive: -11.3%; as for `CC(Sc1ccc(Cl)cc1)C(=O)Nc1ccccc1-c1ccccc1` (stereo unspecified), inactive: -10.1%. The same measure for `CCOc1ccc2c(c1)C(c1ccc(C)o1)=NNC(c1ccncc1)=N2`: inactive: 9.88%; for `N#C/C(=C/C1=C(N2CCOCC2)C(=C/c2ccccc2)/CC1)C(=O)Nc1ccccc1F`: inactive: 12.1%; for `CCOC(=O)c1cc(C#N)c(N2CCN(c3ccccn3)CC2)nc1-c1ccccc1`: inactive: -20.7%. With `Cc1ccc2nc(NC(=O)C3CCCN3C(=O)OC(C)(C)C)sc2c1` (stereo unspecified), the “growth rescue (activation)” value is inactive: 18.9%. The same measure for `FC(F)(F)c1nnc(-c2ccccc2)nc1N1CCCC1`: inactive: 4.06%; for `Cc1c(C(=O)OCC(=O)NCC2CCCO2)oc2ccccc12` (stereo unspecified): inactive: 1.36%. As for `COc1ccc(C(C)=O)cc1Cn1nc(C)c([N+](=O)[O-])c1C`, the figure is inactive: 14.8%; as for `Cc1cc(NC(=O)COC(=O)C2CC(=O)N(c3ccc(Br)cc3)C2)no1` (stereo unspecified), inactive: 4.18%.

For the molecule `O=C(NCc1ccc(F)c(F)c1)C1Cc2c(-c3ccc4c(c3)OCO4)ccnc2O1` (stereo unspecified), the “growth rescue (activation)” value was inactive: -1.4%. The same measure for `CC1=Nc2ccc3ccccc3c2C1(C)C`: inactive: 25.3%. The same measure for `CCOc1c(Cl)cc(CNc2nnnn2C)cc1OC`: inactive: 7.95%. As for `CC(=O)N(C)c1ccc(NS(=O)(=O)c2cc(Cl)ccc2Cl)cc1`, the figure is inactive: 4.76%; as for `CC(=O)OC(C)C(=O)NS(=O)(=O)c1ccc(C)cc1` (stereo unspecified), inactive: -12.7%; as for `CC(=O)c1cccc(Nc2c([N+](=O)[O-])c(=O)oc3ccccc23)c1`, inactive: 4.96%. For the molecule `O=C(N/N=C/c1cc([N+](=O)[O-])ccc1O)c1cc(-c2ccccc2)nc2ccccc12`, the “growth rescue (activation)” value is inactive: 22.3%.

`Cn1c(=O)[nH]c(=O)c2c1nc(N1CCOCC1)n2CCc1ccccc1`: the “growth rescue (activation)” value was inactive: 0.517%. The same measure for `COc1ccc(CNC(=O)Cc2csc3ccccc23)cc1OC`: inactive: 10.6%; for `COC(=O)c1ccc(COc2ccc(-c3nnn(CC(N)=O)n3)cc2)cc1`: inactive: 11.2%; for `COc1cc(Br)c(/C=C(\C#N)c2nc3ccccc3[nH]2)cc1OC`: inactive: -1.29%. As to `O=C(CNC(=O)/C(=C\c1ccccc1)NC(=O)c1ccc(Br)cc1)OCc1ccccc1`, the “growth rescue (activation)” value is inactive: 16%. Take `COc1ccc([N+](=O)[O-])cc1NC(=O)Cc1ccc(C)cc1`: the “growth rescue (activation)” value was inactive: -0.0452%. Regarding `CC(NCc1ccc(OCc2ccc(Cl)cc2)cc1)C(O)c1ccccc1` (stereo unspecified), the “growth rescue (activation)” value is inactive: 26.6%. As for `O=C(Cc1ccccc1)NNC(=O)c1ccc(NC(=O)c2ccccc2)cc1`, the figure is inactive: -3.43%.

For the molecule `COc1ccc([N+](=O)[O-])cc1NC(=O)c1cn(-c2ccc(C)c(C)c2)c(=O)c2ccccc12`, the “growth rescue (activation)” value was inactive: -1.36%.

For `CC1CCCCN1CC(=O)Nc1ccc2c(c1)OC(F)(F)O2` (stereo unspecified), the “growth rescue (activation)” value is inactive: -4.06%.

`O=C(OCC(=O)c1c[nH]c2ccccc12)c1ccc([N+](=O)[O-])s1`: the “growth rescue (activation)” value is inactive: -93.5%. As for `O=C(Nc1cc(S(=O)(=O)N2CCOCC2)ccc1Cl)c1ccncc1`, the figure is inactive: 0.0883%; as for `Cc1oc2nc(SCCCC(=O)NCCCO)nc(N)c2c1C`, inactive: -0.704%. The same measure for `Cc1c(N2C(=O)/C(=C/c3ccc(N(C)C)cc3)N(C)C2=S)c(=O)n(-c2ccccc2)n1C`: inactive: -16.3%; for `COc1ccc(CN(C)CC(=O)NC(=O)NCc2ccccc2)c(OC)c1`: inactive: -7.39%.

On to `COc1ccc(Cc2nnc(NC(=O)c3cccc([N+](=O)[O-])c3)s2)cc1`, for which the “growth rescue (activation)” value is inactive: -4.66%. As for `O=C1c2ccccc2C2=Nc3ccccc3SC(c3ccc(Cl)cc3)C12` (stereo unspecified), the figure is inactive: 22.1%; as for `CC(NC(=O)CSc1nc(=O)cc(N)n1-c1ccccc1)c1ccccc1` (stereo unspecified), inactive: -15%; as for `O=C(NC1CC2CCCC(C1)N2Cc1ccccc1)C1CCCCC1` (stereo unspecified), inactive: 5.09%. `CC(C(=O)N1CCc2ccccc21)N1CCN(Cc2ccc(Cl)cc2)CC1` (stereo unspecified): the “growth rescue (activation)” value was inactive: -6.99%. As for `CCOC(=O)c1c(-c2ccccc2)csc1NC(=O)/C(C#N)=C/c1ccc(OC)c(OC)c1`, the figure is inactive: 8.28%; as for `Cc1[nH][nH]c(=O)c1C(c1ccc(N(C)C)c(Br)c1)c1c(C)[nH][nH]c1=O`, inactive: -9.93%; as for `N#C/C(=C\c1c(Oc2ccccc2Cl)nc2ccccn2c1=O)C(=O)NC1CCS(=O)(=O)C1` (stereo unspecified), inactive: 3.81%. The same measure for `O=C(CO/N=C/c1ccccc1)Nc1c(F)c(F)c(F)c(F)c1F`: inactive: 12.6%; for `Cc1ccc(NC(=O)COC(=O)/C=C/c2ccccc2)cc1S(=O)(=O)N1CCOCC1`: inactive: 11.2%; for `CC1CCc2cc(F)ccc2N1S(=O)(=O)c1ccc(Cl)nc1` (stereo unspecified): inactive: 30.3%. As for `O=C(c1ccc(F)cc1)C1CCN(C(=O)Nc2ccc(F)cc2F)CC1`, the figure is inactive: 30.2%; as for `O=C(O)c1cc([N+](=O)[O-])cc2c1nnn2O`, inactive: -0.141%; as for `Cc1nc(C)c(C(=O)N/N=C/c2c[nH]c3ccccc23)s1`, inactive: 4.68%. Turning to `O=C(COC(=O)C1CC1)Nc1ccc(N=Nc2ccccc2)cc1`, the “growth rescue (activation)” value is inactive: 15.8%.

In the case of `CC1CCN(CCC(=O)Nc2ccccc2)CC1`, the “growth rescue (activation)” value is inactive: 2.37%. As for `CN(C)S(=O)(=O)NCCNc1ccc(C(F)(F)F)cc1[N+](=O)[O-]`, the figure is inactive: -23.7%.

In the case of `Cc1cc(NC(=O)C2CC2)ccc1NC(=O)c1cccs1`, the “growth rescue (activation)” value was inactive: -23%. As for `Oc1ccc(N2CCN(CC(O)c3ccccc3)CC2)cc1` (stereo unspecified), the figure is inactive: 12.1%; as for `O=C(O)C1CSC(c2ccc3c(c2)OCO3)N1` (stereo unspecified), inactive: 5.93%. As for `Cn1c(N)c(C(=O)COC(=O)/C=C/c2ccccc2)c(=O)n(C)c1=O`, the figure is inactive: -1.93%; as for `CCCCOc1ccc(CNC(=O)C2CCN(c3nnc(-n4cccc4CNc4ccc(C)cc4)s3)CC2)cc1`, inactive: 1.36%; as for `Cc1ccc(NC(=O)Cc2nnc(SCC(=O)Nc3nncs3)n2C)c(C)c1`, inactive: 6.94%.

Take `CCOC(=O)c1c(NC(=O)C2=C(C)NC(=S)NC2c2ccc(F)cc2F)sc(C)c1C` (stereo unspecified): the “growth rescue (activation)” value is inactive: 29.6%.

For the molecule `Cc1cccc(CC2SC(N)=NC2=O)c1` (stereo unspecified), the “growth rescue (activation)” value is inactive: 5.97%. As for `CCN(CC)C(=O)C(=O)N/N=C/c1ccc(C(=O)O)cc1`, the figure is inactive: 8.09%; as for `CCCC(C)C(=O)NCc1ccncc1` (stereo unspecified), inactive: 5.37%. The same measure for `C#CCOC(=O)/C(=C/C=C/c1ccccc1)NC(=O)c1ccccc1`: inactive: 2.94%. The same measure for `CNC(=O)NC(=O)C(OC(=O)Cc1cccc(C(F)(F)F)c1)c1ccccc1` (stereo unspecified): inactive: -13.3%. On to `COC(=O)C1=C(C)N(c2ccccc2)C(=S)NC1c1ccccc1C(F)(F)F` (stereo unspecified), for which the “growth rescue (activation)” value was inactive: 20.3%. `Cc1ccc(C(=O)Nc2ccccc2NC(=O)c2ccc(C)o2)o1`: the “growth rescue (activation)” value is inactive: 14.9%.

`O=C(NNC1OC(CO)C(O)C(O)C1O)c1cccc(Br)c1` (stereo unspecified): the “growth rescue (activation)” value was inactive: 8.25%. As to `CC(C)(C)c1ccc(/C=N/N2C(=O)CSC2=S)cc1`, the “growth rescue (activation)” value was inactive: 27%. As for `COc1ccc(/C=N\NC(=O)c2cc(O)c(O)c(O)c2)cc1CN1CCN(c2ccc(F)cc2)CC1`, the figure is inactive: -18.7%; as for `C[n+]1cccc(/C=N/Nc2nc(Cl)c(C#N)c(Cl)c2Cl)c1`, inactive: 6.62%. As for `O=C(NCC(F)(F)F)c1ccc2sc([C@@H]3O[C@H](CO)[C@H](O)[C@H](O)[C@H]3O)nc2c1`, the figure is inactive: -3.86%.
